Laboratory results published in the supplement of paper PMC11417369.
± gives the standard deviation of the averaged measurements. This is one part of the list.

test system: PfAP2-EXP AP2 domain (GST-tagged); experiment: gcPBM binding intensity (ln(normalized median fluorescence intensity)); higher = stronger DNA binding
Summary of the method: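 After 1 h on an Agilent 4 × 180k array of primer-extended double-stranded 36-bp intergenic genomic probes and negative controls, bound GST-tagged P. falciparum DNA-binding domains were detected with Alexa488 anti-GST antibody and scanned at 488 nm. The domains had been expressed in E. coli, and binding took place in 1× PBS with 1% milk, 0.2 mg/ml BSA, 0.5% salmon testes DNA and 0.03% Triton X-100. Binding intensity is the highest Masliner-normalised natural-log median intensity across replicate spots of either probe orientation.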

| Sequence | gcPBM binding intensity (ln) |
| --- | --- |
| AAAAAAAAAAAAAACACACACACAAAAAAAAATATA [CACACA_site1104] | 8.48 ± 0.45 |
| ATTGTATATAAATGAGTGCATACTATGTTGTTCTTA [GTGCAC_site9678] | 8.66 ± 0.14 |
| ATTATCTCCGCCATGTGGACACATATAAGACATTTT [XGTACX_site2889] | 8.91 ± 0.38 |
| AGGCTACGAATAGAATGTACCCGAAATAAGGAATAT [XGTACX_site6012] | 8.74 ± 0.47 |
| ATATAAGCGTATACATGTACATATATATCTTTGTAA [XGTACX_site2742] | 8.72 ± 0.37 |
| TATGTAAATCTCTTAAGAATTCGCTATATCTCTTTT [CACACA_negctrl_site1180] | 8.41 ± 0.49 |
| ATCTATGAAAAAGGTACATGCAATAAAGAAACATAT [TGCATGCA_site805] | 9.54 ± 0.45 |
| TTATAATCAATGAATACACACATATATTTCATTAAT [CACACA_site5909] | 8.28 ± 0.47 |
| TAATAATAGAGACACACACACATAGACATATAAATA [CACACA_site6729] | 8.83 ± 0.51 |
| TTATACTATTTTTATACATGCATTTCTATATATTTT [TGCATGCA_site316] | 9.3 ± 0.28 |
| TTCAAAATAAAAAATTCACACACATATATATATATA [CACACA_site8653] | 10 ± 0.45 |
| ATTTATTAAATTTATAGTACTCAAAGATTTTTATTT [XGTACX_site6661] | 8.43 ± 0.38 |
| AAATAAAACAATTAACGTACAAGCATATATATATAT [XGTACX_site8508] | 10.1 ± 0.14 |
| AAATAAAAAAAAATAGCACACATAAATATATTATAT [CACACA_site8155] | 8.66 ± 0.33 |
| TATGTATAATTATTTTGTACTTATTAAATTTTTTTT [XGTACX_site5413] | 8.23 ± 0.42 |
| TATATATATATTATATGTACACAAGGAAATATGCAT [XGTACX_site5637] | 9.34 ± 0.028 |
| AAAAAAAAAAAAGTTACACACAAATAAAATATTTGG [CACACA_site694] | 8.24 ± 0.45 |
| AAGAAAAATTTAAACTGTACTTGTTTTCCAATGAAC [XGTACX_site4443] | 8.66 ± 0.16 |
| ATTATTCATTTATGTAGTACATTTTAATACATTTAA [XGTACX_site3599] | 8.53 ± 0.39 |
| ATAAAAAAAAATAAATGTACAAATTAACAAAATAAT [XGTACX_site5048] | 8.79 ± 0.48 |
| AATCACCAAATATGTACACACCTTAACATGTTTATA [CACACA_site5180] | 8.95 ± 0.33 |
| TGTGAATAAATAAGCACACATAAACCCATATATAAA [CACACA_site4103] | 8.76 ± 0.49 |
| ATCTAAACAAATAATACACACAATAAAATAGGAAGA [CACACA_site4072] | 8.92 ± 0.48 |

| Sequence | gcPBM binding intensity (ln) |
| --- | --- |
| TAATATTTACATATTACACACACGTATTATTAAATA [CACACA_site6340] | 8.33 ± 0.41 |
| TATTTTTTAAAAATGGGTACACATAAATAAATAAAT [XGTACX_site7643] | 8.87 ± 0.4 |
| ATACACACTCAAAAAAGTACTTAACTACATGAATTG [XGTACX_site6366] | 8.64 ± 0.15 |
| CTCAAAGGAATATTCACACATAAATTATAGACTACA [CACACA_site6050] | 8.68 ± 0.77 |
| TAATTATATTCACTTGCTATATAAATTATATATATT [CACACA_negctrl_site526] | 8.36 ± 0.43 |
| AAGAAAAAAATATATGTTTATTTACTTTAATAATTT [TGCATGCA_negctrl_site168] | 8.04 ± 0.39 |
| GTATATATATATATATGCAAATGTATAAATCTACAT [CACACA_negctrl_site546] | 8.46 ± 0.36 |
| TATATATAAATATGCTGTACGTTTTAATACGTTAAG [XGTACX_site2378] | 8.44 ± 0.13 |
| GATAAATTAAAACACACACACATATATATATATATA [CACACA_site3962] | 10.1 ± 0.39 |
| AAAAAAATAGTCTTCTTGCACTTTTTAATTTATTTT | 8.38 ± 0.19 |
| TTATAATAAAATGAATATATATAATTTAAAATATTT [CACACA_negctrl_site1651] | 8.14 ± 0.45 |
| AAAAAAAGTTATATTACACACTTTATTCGTTAACTT [CACACA_site3013] | 8.44 ± 0.42 |
| ATATTTATGAAGTTCACACATATATATATATATATA [CACACA_site5954] | 10.3 ± 0.52 |
| ACAACAATATTTGAATGTACTCTATTTTCGTTGTTC [XGTACX_site593] | 8.69 ± 0.52 |
| TTTCTTCATTTTTTCACACATAAGAAAATATAATCA [CACACA_site4275] | 8.46 ± 0.46 |
| AAGGAAAACAATAGGTGTACCAAACGTCCTAGGAAC [XGTACX_site5732] | 8.96 ± 0.45 |
| TAAAAAAATAAAATTACACACATATATAAATATATA [CACACA_site2620] | 8.2 ± 0.28 |
| AAAAAAGCAATATGATGTACATTTACTTTGTGAAAG [XGTACX_site4450] | 8.54 ± 0.46 |
| AAATATTATAAAAAGGTGCATTTTTATTATATGAGT | 8.81 ± 0.085 |
| TTTTGTTATAATAAAGTGCATTTAGTCGGGTTACAA [GTGCAC_site9779] | 8.66 ± 0.13 |
| ATATATAAATATATTTGTACATATAATATGTATTAT [XGTACX_site8820] | 8.49 ± 0.35 |
| CTAGGTATGCTTTAAACATGCAAAAATACAAATTAC [TGCATGCA_site239] | 8.88 ± 0.39 |
